From the supplement of paper PMC3334620
Over roughly 33,000 sequences, “E-score (-0.5 to 0.5)” has its median near -0.035; the highest 2% begin near 0.34. This is one part of the list.

These sequences were tested against T1, Mot3 (UniProt P54785) (assay: PBM E-score (8-mer binding enrichment) (E-score (-0.5 to 0.5)); higher = stronger / more preferred TF binding; most listed sequences are background and not binding sites). Details: protein concentration: 200 nM; construct: GST-full length.
T1 sequence: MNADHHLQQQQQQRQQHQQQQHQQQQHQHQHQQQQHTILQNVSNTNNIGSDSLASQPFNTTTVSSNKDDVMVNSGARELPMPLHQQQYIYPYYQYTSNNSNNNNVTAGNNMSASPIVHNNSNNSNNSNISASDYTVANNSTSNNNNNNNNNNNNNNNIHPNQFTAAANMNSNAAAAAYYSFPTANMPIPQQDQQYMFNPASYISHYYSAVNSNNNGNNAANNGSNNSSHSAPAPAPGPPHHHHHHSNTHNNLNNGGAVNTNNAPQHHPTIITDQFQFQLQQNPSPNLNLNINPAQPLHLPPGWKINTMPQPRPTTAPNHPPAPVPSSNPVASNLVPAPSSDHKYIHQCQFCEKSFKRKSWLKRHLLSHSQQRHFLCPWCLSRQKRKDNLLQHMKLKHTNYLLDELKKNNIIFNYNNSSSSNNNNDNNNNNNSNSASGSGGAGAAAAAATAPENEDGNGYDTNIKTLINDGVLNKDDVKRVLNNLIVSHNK
Procedure: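 Universal 'all 10-mer' protein binding microarrays (Agilent AMADID 015681) probed with GST-tagged S. cerevisiae TFs (full-length or DBD) made by in vitro transcription/translation (PURExpress), about 100-200 nM. Bound TF was detected with fluorescent anti-GST. Each ungapped 8-mer (which stands for itself and its reverse complement) is scored by the PBM enrichment score (E-score), a modified Wilcoxon-Mann-Whitney statistic from -0.5 to +0.5, computed with the Universal PBM Analysis Suite. Scale: above 0.35 generally sequence-specific binding.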
With CTTACGTC the “PBM E-score” value was 0.105. For AAAGGTCG, the “PBM E-score” value was -0.175. For GACTGAGA, the “PBM E-score” value was -0.0128. CTACTCCA was tested, and the “PBM E-score” value was 0.00062. In the case of ACTCGCCT, the “PBM E-score” value is reported as -0.161. With AGGGTGGC the “PBM E-score” value was -0.18. For CGCTCGAG, the “PBM E-score” value was -0.0778. With CATGGTGA the “PBM E-score” value was -0.056. For GCGTCCCC, the “PBM E-score” value was -0.362. In the case of CTCCACGC, the “PBM E-score” value is reported as -0.268. CCCTAGTA was tested, and the “PBM E-score” value was 0.029. For ACCGACCT, the “PBM E-score” value was -0.107. GATGGCCC was tested, and the “PBM E-score” value was -0.229. With GAAGACTA the “PBM E-score” value was -0.0617. In the case of GATAACAA, the “PBM E-score” value is reported as 0.226. For ATGGCGTA, the “PBM E-score” value was -0.00384. ACTAACGG was tested, and the “PBM E-score” value was -0.245. With GCTACTTA the “PBM E-score” value was 0.0159. ACCGGACC was tested, and the “PBM E-score” value was -0.161. In the case of CCAATGTC, the “PBM E-score” value is reported as -0.209. CATGTGAA was tested, and the “PBM E-score” value was 0.243. CATGGCTC was tested, and the “PBM E-score” value was -0.144. With GGTCAAAA the “PBM E-score” value was 0.106. With CCCAGGGC the “PBM E-score” value was -0.256. For AAAACTAC, the “PBM E-score” value was 0.0655. AGCTGGAC was tested, and the “PBM E-score” value was -0.0576. For CTACCTAA, the “PBM E-score” value was 0.00387. GACTCTGC was tested, and the “PBM E-score” value was -0.215. GGAATGTA was tested, and the “PBM E-score” value was 0.0681. For CTTTGGCA, the “PBM E-score” value was -0.168. In the case of GGGCCAAC, the “PBM E-score” value is reported as -0.115. AAAAGGAA was tested, and the “PBM E-score” value was 0.36. In the case of AACAGGAT, the “PBM E-score” value is reported as 0.0971. With AGACCTCA the “PBM E-score” value was -0.0868. With AGGACTCA the “PBM E-score” value was -0.0958. In the case of AACCTGAC, the “PBM E-score” value is reported as -0.0317. For AGCTGAAA, the “PBM E-score” value was -0.0409. With AGGTACTC the “PBM E-score” value was 0.333. With ACCTGCGG the “PBM E-score” value was 0.0115. With CACGATCA the “PBM E-score” value was 0.145. CGCATGCC was tested, and the “PBM E-score” value was -0.0357. With AATGTCCT the “PBM E-score” value was 0.0196. With ATGGCTCA the “PBM E-score” value was -0.291. For GAGGGATC, the “PBM E-score” value was -0.168. In the case of AGTCGGCG, the “PBM E-score” value is reported as -0.0568. With GAAGTTTA the “PBM E-score” value was 0.108. For ACTCGTGC, the “PBM E-score” value was -0.146. For CCAACGCA, the “PBM E-score” value was -0.0241. In the case of TAAGCAGA, the “PBM E-score” value is reported as -0.0481. With GACGACTC the “PBM E-score” value was -0.285. With ACCTTAGT the “PBM E-score” value was -0.00647. In the case of CCCAACGA, the “PBM E-score” value is reported as -0.0748. In the case of GAAGTTGC, the “PBM E-score” value is reported as -0.0479. ACCGATGG was tested, and the “PBM E-score” value was -0.0753. AGCTATAC was tested, and the “PBM E-score” value was 0.0128. With CGACATAA the “PBM E-score” value was 0.0835. For CTCGCAGC, the “PBM E-score” value was -0.271. For CAGTGGCG, the “PBM E-score” value was -0.266. For AGATGCTC, the “PBM E-score” value was 0.135. For GTAGGCCA, the “PBM E-score” value was 0.00764. CGTCCCAG was tested, and the “PBM E-score” value was -0.196. In the case of ACGTGTTG, the “PBM E-score” value is reported as 0.338. With AGCTCCAC the “PBM E-score” value was -0.159. In the case of AAATAAGG, the “PBM E-score” value is reported as 0.0911. With ATCGGCGC the “PBM E-score” value was 0.0331. For ACGCCTCA, the “PBM E-score” value was 0.0427. With GCATTAAC the “PBM E-score” value was 0.0848. For GGTATAAC, the “PBM E-score” value was 0.0489. For ACACGATG, the “PBM E-score” value was 0.199. In the case of AGGAAGAC, the “PBM E-score” value is reported as 0.0213. With AAGACGCA the “PBM E-score” value was -0.0452. GCGCCCGA was tested, and the “PBM E-score” value was -0.186. In the case of AGTTTTAG, the “PBM E-score” value is reported as 0.109. With GTTACTTA the “PBM E-score” value was 0.0259. With TAGCGACA the “PBM E-score” value was 0.0489. In the case of CACCAGAG, the “PBM E-score” value is reported as -0.0278. For ACTGACAA, the “PBM E-score” value was 0.119. GCAAGTCA was tested, and the “PBM E-score” value was 0.00523. ACAACTAA was tested, and the “PBM E-score” value was 0.183. In the case of GGACATGA, the “PBM E-score” value is reported as -0.0365. ATCCTAAA was tested, and the “PBM E-score” value was -0.0533. ACCTAATA was tested, and the “PBM E-score” value was 0.14. In the case of TCATCGGA, the “PBM E-score” value is reported as -0.18. For TCGGGGCA, the “PBM E-score” value was -0.188. For CGCTAACC, the “PBM E-score” value was -0.148. With TAGGATAA the “PBM E-score” value was -0.0135.
